Activation data for 81 compounds are collected here from PubChem BioAssay AID1645887 (National Center for Advancing Translational Sciences (NCATS), 2021).

The structures appear in SMILES notation. Several values for one entry are separate records, joined by “and”; a condition that tells them apart may be missing. Equal values may be shown once. Screen size: about 16,000 compounds; about 40 (0.2%) were called active. Inconclusive results (about 1%) are left out. The call rests on the fitted dose curve; in most records, active means well fitted activation curve with a large enough effect; inconclusive means small, poorly fitted or top-dose-only effect, or another doubt; inactive means no such curve, though single readings can be large or run the other way. This is one part of the list. Residues, ends and D or L forms follow the SMILES beside them. *: point of attachment. Cbz = O=C(OCc1ccccc1)*
On the % scale 0 is the no-effect control and ±100 the full control effect.

UniProt Q8WZA2, sequence (Q8WZA2 whole entry, looked up): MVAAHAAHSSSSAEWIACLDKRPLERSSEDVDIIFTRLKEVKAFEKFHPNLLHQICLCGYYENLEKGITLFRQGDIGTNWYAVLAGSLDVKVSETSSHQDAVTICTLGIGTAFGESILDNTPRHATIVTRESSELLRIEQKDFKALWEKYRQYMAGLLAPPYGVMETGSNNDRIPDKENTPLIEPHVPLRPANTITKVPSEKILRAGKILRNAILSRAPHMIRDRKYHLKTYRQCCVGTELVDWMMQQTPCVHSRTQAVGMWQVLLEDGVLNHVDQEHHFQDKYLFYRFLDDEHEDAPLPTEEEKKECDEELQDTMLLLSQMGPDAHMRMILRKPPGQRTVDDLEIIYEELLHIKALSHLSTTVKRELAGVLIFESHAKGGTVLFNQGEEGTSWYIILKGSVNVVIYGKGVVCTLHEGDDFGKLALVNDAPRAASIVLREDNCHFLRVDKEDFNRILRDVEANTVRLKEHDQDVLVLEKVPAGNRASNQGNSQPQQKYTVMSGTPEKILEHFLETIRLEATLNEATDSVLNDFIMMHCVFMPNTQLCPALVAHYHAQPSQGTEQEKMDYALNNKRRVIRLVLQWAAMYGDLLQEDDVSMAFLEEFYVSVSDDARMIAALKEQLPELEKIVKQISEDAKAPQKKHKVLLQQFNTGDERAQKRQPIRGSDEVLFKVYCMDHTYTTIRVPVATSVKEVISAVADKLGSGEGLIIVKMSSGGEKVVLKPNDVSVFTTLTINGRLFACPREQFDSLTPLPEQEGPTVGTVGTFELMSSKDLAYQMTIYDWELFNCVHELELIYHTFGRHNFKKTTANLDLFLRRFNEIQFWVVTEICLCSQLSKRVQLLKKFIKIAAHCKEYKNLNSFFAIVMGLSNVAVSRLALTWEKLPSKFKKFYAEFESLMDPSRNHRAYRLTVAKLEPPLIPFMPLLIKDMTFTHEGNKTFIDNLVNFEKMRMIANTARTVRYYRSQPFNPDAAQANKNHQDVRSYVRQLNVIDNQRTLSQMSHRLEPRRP

The assay has as its target Rap guanine nucleotide exchange factor 4 (Homo sapiens) (UniProt Q8WZA2). The experiment in a line: Validation qHTS for agonist of cAMP-regulated guanine nucleotide exchange factor 4 (EPAC2).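 Further: exchange makes BODIPY-GDP fluorescence drop when released from Rap1B; series mostly up to about 150 µM.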 Conditions: EPAC2 Rap1B BODIPY-GDP exchange, fluorescence; activation: active compounds read high. The essentials:
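Fluorescent exchange assay: 100 nM EPAC2 with 250 nM RAP1B-BODIPY-GDP and 50 uM GDP; compound added, 5 min at room temperature, then read (ex 480/em 540 nm) every 5 min for 30 min. Normalized to 6.5 mM cAMP agonist control.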
Background: In qHTS, concentration-response curves come from the screen itself.
Consider `Cc1nc2sccn2c(=O)c1CCN1CCC(=C(c2ccc(F)cc2)c2ccc(F)cc2)CC1`, for which the activation was inactive: -20.1% and inactive: -32.1%.

As for `Cc1cnc(CNc2ncnc3ccc(-c4c(C)noc4C)cc23)cn1`, the activation was inactive: -2.53%.

As for `COCCNc1ncnc2ccc(-c3ccccc3OC)cc12`, the activation is inactive: 0.31%.

For `Cc1noc(C)c1C(=O)N1CCC2(CCCN(c3ccccn3)C2)CC1`, the activation was inactive: 3.87%.

With `COCC(=O)N1CCC[C@@]2(CCN(Cc3ccccc3OC)C2)C1`, the activation was inactive: -8.16%.

As for `CN(C)c1ncc2ncc(=O)n(C[C@H]3CCCO3)c2n1`, the activation is inactive: -12.3%.

Consider `COc1cc(O)c(C(=O)O)c(O)c1`, for which the activation is inactive: -10.1%.

As for `O=C(NCCc1nnc2n1CCN(Cc1c(F)cccc1F)CC2)c1ccco1`, the activation is inactive: -16.8%.

With `CC(=O)[C@H]1CC[C@H]2[C@@H]3C=CC4=CC(=O)CC[C@@]4(C)[C@H]3CC[C@]12C`, the activation was inactive: -22.5%.

Regarding `CCOC(=O)C1=C(C)NC(C)=C(C(=O)OC)C1c1cccc(Cl)c1Cl` (stereo unspecified), the activation was inactive: 19.6% and inactive: -14%.

As to `O=C(Nc1ccccc1)N[C@H]1C[C@H](C(=O)O)Nc2cc(Cl)cc(Cl)c21`, the activation is inactive: -16.4%.

For `Cc1ccnc2c(O)cccc12`, the activation is inactive: -23.5%.

In the case of `O=C1c2c(O)ccc(O)c2C(=O)c2c(NCCNCCO)ccc(NCCNCCO)c21`, the activation is inactive: 6.63% and inactive: -15.7% and inactive: -34.9%.

Regarding `COc1cc(CN2C(=O)CC[C@@H]3CN(Cc4ccccn4)CC[C@@H]32)cc(OC)c1OC`, the activation was inactive: -2.22%.

For `Cc1[nH]c2ccccc2c1/C=C/c1ccc2ccccc2n1`, the activation is inactive: -18.8%.

On to `N#Cc1cccc(NC(=O)N2CCC3(CC2)CCN(C(=O)c2csnn2)CC3)c1`, for which the activation is inactive: -25.9%.

As to `CC(=O)O[C@H]1C[C@@H]2CC[C@@H]3[C@H](CC[C@@]4(C)[C@H]3C[C@H]([N+]3(C)CCCCC3)[C@@H]4OC(C)=O)[C@@]2(C)C[C@@H]1[N+]1(C)CCCCC1`, the activation is inactive: -27.8% and inactive: -30.4%.

Regarding `COCCn1c(=O)c(-c2ccccc2)nc2cnc(N3CCNCC3)nc21`, the activation was inactive: -4.76%.

Take `CC(C(=O)O)c1ccc(C2CCCCC2)c2ccccc12` (stereo unspecified): the activation was inactive: -0.78%.

Take `CN(C)c1ccc(/C=C/c2ccnc3c2ccc2ccccc23)cc1`: the activation was inactive: -10%.

As to `Cc1cc(-c2ccnc(-n3ncc(C(=O)NCc4cccnc4)c3C3CC3)n2)c(C)s1`, the activation is inactive: -10.3%.

As for `C[C@H](CCC(=O)NCC(=O)O)C1CC[C@H]2[C@H]3C(C[C@H](O)[C@]12C)[C@@]1(C)CC[C@@H](O)C[C@H]1C[C@H]3O` (stereo partly specified), the activation is inactive: 10.5%.

For the compound `CC(=O)Nc1ccccc1C(=O)C(=O)O`, the activation was inactive: -17.9%.

Turning to `Fc1ccc([C@H]2CCNCC2COc2ccc3c(c2)OCO3)cc1` (stereo partly specified), the activation was inactive: -29.3%.

With `CC(=O)Nc1ccc(OC[C@@H](O)CNC(C)C)cc1`, the activation is inactive: -18.2%.

Take `CC(CC(O)C1OC1(C)C)C1CCC2(C)C3=CCC4C(C)(C)C(=O)CCC4(C)C3CC[C@@]12C` (stereo partly specified): the activation is inactive: -23.1%.

Consider `O=C(NC(Cc1cc(=O)[nH]c2ccccc12)C(=O)O)c1ccc(Cl)cc1` (stereo unspecified), for which the activation is inactive: -10.6%.

As to `COc1cc(O)cc(OC)c1OC`, the activation is inactive: -2.65%.

On to `CCN1C(=O)C=CC1=O`, for which the activation was inactive: -9.63%.

For the compound `COc1cc2nc(N(C)C)c(CNC3CCOC(C)(C)C3)cc2c(OC)c1OC` (stereo unspecified), the activation was inactive: -8.17%.

For `O=C(NCc1nnc2n1CCN(Cc1cc3c(cc1Cl)OCO3)CC2)C1CCOC1` (stereo unspecified), the activation is inactive: -13.2%.

For `O=c1c(-c2cc(F)cc(F)c2)nc2cnc(Nc3ccccc3)nc2n1C[C@H]1CCCO1`, the activation is inactive: -11.6%.

Turning to `CN1[C@@H]2CC(OC(=O)[C@H](CO)c3ccccc3)C[C@@H]1[C@H]1O[C@H]12` (stereo partly specified), the activation was inactive: -17.4%.

With `COc1ccc(OC)c(CN2CCC3(CCC(CNC(=O)c4ccco4)O3)CC2)c1` (stereo unspecified), the activation was inactive: -3.79%.

`COCC(=O)N1CCC2(CCCN(c3ncccn3)C2)CC1`: the activation is inactive: -6.18%.

In the case of `C=C1[C@@H]2CC[C@@H](C2)C1(C)C`, the activation is inactive: -40.6%.

For the compound `Nc1ncn(C2OC(CO)C(O)C2O)c(=O)n1` (stereo unspecified), the activation is inactive: -8.91%.

As for `COC1[C@@H](O[C@@H]2O[C@H](C)[C@@H](O[C@H]3C[C@@](C)(O)[C@H](OC(=O)CC(C)C)[C@H](C)O3)[C@H](N(C)C)[C@H]2O)[C@@H](CC=O)C[C@@H](C)[C@@H](O)/C=C/C=C/C[C@@H](C)OC(=O)C[C@H]1OC(C)=O` (stereo partly specified), the activation is inactive: -4.09%.

For `OC[C@H]1O[C@H](n2cnc3c(N[C@H]4CCC[C@@H]4O)ncnc32)[C@H](O)[C@@H]1O`, the activation is inactive: -12.4%.

For `COc1ccc(NC(=O)N2CCCC3(CCN(C(=O)c4cccc(F)c4)CC3)C2)cc1`, the activation was inactive: 2.11%.

Turning to `CC(C)(C)NC[C@H](O)COc1cccc2c1CCCC2=O`, the activation is inactive: -36.5%.

Take `CCNc1ncc2nc(-c3ccc(Cl)cc3)c(=O)n(-c3ccccc3)c2n1`: the activation was inactive: 15.8%.

`C[N+](C)(C)CCOC(N)=O`: the activation is inactive: 20.5% and inactive: -19.1% and inactive: -12.3%.

For `CCc1nc2cc(C(=O)N(C)CC3CCCN(C)C3)cc(NC(=O)c3ccccc3OC)c2n1C` (stereo unspecified), the activation is inactive: -11.4%.

Consider `FC(F)(F)c1cc(CN2CC[C@@]3(CCCNC3)C2)cc(C(F)(F)F)c1`, for which the activation was inactive: -17.8%.

Regarding `O=C(O)Cc1cccc2ccccc12`, the activation was inactive: -3.95% and inactive: -8.91%.

On to `COCC(=O)N1CCC2(CCCN(Cc3cc(C(F)(F)F)cc(C(F)(F)F)c3)C2)CC1`, for which the activation is inactive: -35.3%.

`CC(C)[C@H](NC(=O)OCc1ccccc1)C(=O)N[C@H](C=O)Cc1ccccc1` (Cbz-Val-Phe-aldehyde): the activation is inactive: -0.583% and inactive: -58.1%.

On to `O=C(c1cnccn1)N1CCC2(CCN(Cc3nccs3)CC2)CC1`, for which the activation was inactive: -7.81%.

Take `OC[C@H]1NC[C@@H](O)[C@@H]1O`: the activation is inactive: -33.5%.

Consider `NC(=S)c1ccc[n+]([C@@H]2O[C@@H](COP(=O)([O-])OP(=O)(O)OC[C@H]3O[C@@H](n4cnc5c(N)ncnc54)[C@H](OP(=O)(O)O)[C@@H]3O)C(O)C2O)c1` (stereo partly specified), for which the activation is inactive: -34.4%.

For the compound `O=C(O)C[C@H]1c2ccccc2S(=O)(=O)N1c1ccccc1`, the activation is inactive: -13.5%.

Turning to `CCCNC(C)(C)COC(=O)c1ccccc1`, the activation was inactive: -6.9%.

As for `O=c1c(-c2ccc(F)cc2)nc2cnc(N3CCOCC3)nc2n1C1CC1`, the activation was inactive: -4.69%.

As to `COCCn1c(=O)c(-c2ccc(F)cc2)nc2cnc(Oc3ccc(OC)cc3)nc21`, the activation was inactive: 0.482%.

Take `Cc1cccc(/C=C\c2ccccc2)n1`: the activation was inactive: -11.9%.

As for `CCC1(C)CC(=O)NC1=O` (stereo unspecified), the activation was inactive: -13.2% and inactive: 8.15% and inactive: -4.64%.

For `CC(=O)Nc1ccc(OC(C)=O)cc1`, the activation was inactive: -10.8%.

With `CCOC(=O)/C=C1\CN(Cc2cc(OC)c(OC)c(OC)c2)S(=O)(=O)c2ccccc21`, the activation is inactive: -10.4%.

On to `Cc1nc2c([nH]1)c(=O)n(C)c(=O)n2Cc1ccco1`, for which the activation was inactive: -19.9% and inactive: -14%.

Turning to `O=C1C=CC2=C3c4cc(O)c(O)cc4CC3(O)COC2=C1O` (stereo unspecified), the activation is inactive: -1.99% and inactive: -8.15%.

For `CC(NCCc1ccc(O)cc1)C(O)c1ccc(O)cc1` (stereo unspecified), the activation was inactive: -5.47%.

As for `COc1ccc(NC(=O)N2CC[C@@]3(CCCN(C(=O)c4cnccn4)C3)C2)cc1`, the activation is inactive: -8.57%.

Consider `FC(F)(F)c1ccccc1-c1cncnc1NCc1cccnc1`, for which the activation was inactive: 5.46%.

Regarding `CC(C)C(=O)NC(C)c1nnc2n1CCN(Cc1cccc3ncccc13)CC2` (stereo unspecified), the activation was inactive: -6.55%.

Take `Cc1cnc(CNc2ncncc2-c2cccnc2)cn1`: the activation was inactive: -4.06%.

Take `Cc1c(C(=O)NCCN2CCC(c3ccccc3)CC2)cnn1-c1nccc(-c2cccs2)n1`: the activation is inactive: 7.77%.

`CCNc1ncc2nc(-c3ccc(OC)cc3)c(=O)n(CCC#N)c2n1`: the activation is inactive: 7%.

For the compound `COc1ccc2[nH]cc(CCNc3ccnc(-c4ccccc4C(F)(F)F)n3)c2c1`, the activation was inactive: 6.13%.

`O=C(c1ccncc1)N1CCC2(CC1)CCN(c1cccc(-c3ccccc3)c1)CC2`: the activation is inactive: -10%.

Take `O=C(Nc1cccc(F)c1)N1CCC2(CC1)CCN(C(=O)c1cc(C(F)(F)F)cc(C(F)(F)F)c1)CC2`: the activation was inactive: -19.8%.

As to `CCc1nn(CCCN2CCN(c3cccc(Cl)c3)CC2)c(=O)n1CCOc1ccccc1`, the activation is inactive: -34.6% and inactive: -34.2%.

Regarding `Cn1cc(-c2nc3cnc(Oc4ccccc4)nc3n(CCC#N)c2=O)c2ccccc21`, the activation is inactive: -12%.

As to `Cc1ccccc1-c1cncnc1Nc1ccccc1`, the activation is inactive: -0.0422%.

Take `CCNc1ncc2nc(-c3ccccc3)c(=O)n(Cc3ccc(F)cc3)c2n1`: the activation was inactive: -6.84%.

With `CN(C)CCCc1cc(C(=O)Nc2ccc(-c3ccncc3)cc2)ccc1O`, the activation was inactive: -6.52% and inactive: -24%.

For `NC1[C@H]2CN(c3nc4c(cc3F)c(=O)c(C(=O)O)cn4-c3ccc(F)cc3F)C[C@@H]12` (stereo partly specified), the activation was inactive: 5.15%.

For the compound `CC(=O)OCC(=O)Nc1cc(C#N)cc(NC(=O)COC(C)=O)c1Cl`, the activation was inactive: -7.55%.

`Cc1noc(C)c1C(=O)N1CCC2(CCCN(c3ncccn3)C2)CC1`: the activation is inactive: -9.41%.

In the case of `Cn1c(=O)c2c(nc(/C=C/c3cccc(Cl)c3)n2C)n(C)c1=O`, the activation is inactive: -14.6% and inactive: -40.8%.

Take `O=C(c1cccc(Cn2cccn2)c1)N1CCOc2c(cc(-c3csc4ccccc34)cc2OC2CCOC2)C1` (stereo unspecified): the activation is inactive: -3.16%.
